Experimental data published in the supplement of paper PMC3334620.
In all, about 33,000 sequences were measured (“E-score (-0.5 to 0.5)”: median about -0.053, highest 2% from about 0.37 on). Some of the results follow.

What follows are sequences tested against Hap1 (UniProt P0CE41) (assay: PBM E-score (8-mer binding enrichment) (E-score (-0.5 to 0.5)); higher = stronger / more preferred TF binding; most listed sequences are background and not binding sites). Settings: protein concentration: 200 nM; construct: GST-DNA-binding domain.
Sequence of UniProt P0CE41 (P0CE41 whole entry, the tested form may be a part): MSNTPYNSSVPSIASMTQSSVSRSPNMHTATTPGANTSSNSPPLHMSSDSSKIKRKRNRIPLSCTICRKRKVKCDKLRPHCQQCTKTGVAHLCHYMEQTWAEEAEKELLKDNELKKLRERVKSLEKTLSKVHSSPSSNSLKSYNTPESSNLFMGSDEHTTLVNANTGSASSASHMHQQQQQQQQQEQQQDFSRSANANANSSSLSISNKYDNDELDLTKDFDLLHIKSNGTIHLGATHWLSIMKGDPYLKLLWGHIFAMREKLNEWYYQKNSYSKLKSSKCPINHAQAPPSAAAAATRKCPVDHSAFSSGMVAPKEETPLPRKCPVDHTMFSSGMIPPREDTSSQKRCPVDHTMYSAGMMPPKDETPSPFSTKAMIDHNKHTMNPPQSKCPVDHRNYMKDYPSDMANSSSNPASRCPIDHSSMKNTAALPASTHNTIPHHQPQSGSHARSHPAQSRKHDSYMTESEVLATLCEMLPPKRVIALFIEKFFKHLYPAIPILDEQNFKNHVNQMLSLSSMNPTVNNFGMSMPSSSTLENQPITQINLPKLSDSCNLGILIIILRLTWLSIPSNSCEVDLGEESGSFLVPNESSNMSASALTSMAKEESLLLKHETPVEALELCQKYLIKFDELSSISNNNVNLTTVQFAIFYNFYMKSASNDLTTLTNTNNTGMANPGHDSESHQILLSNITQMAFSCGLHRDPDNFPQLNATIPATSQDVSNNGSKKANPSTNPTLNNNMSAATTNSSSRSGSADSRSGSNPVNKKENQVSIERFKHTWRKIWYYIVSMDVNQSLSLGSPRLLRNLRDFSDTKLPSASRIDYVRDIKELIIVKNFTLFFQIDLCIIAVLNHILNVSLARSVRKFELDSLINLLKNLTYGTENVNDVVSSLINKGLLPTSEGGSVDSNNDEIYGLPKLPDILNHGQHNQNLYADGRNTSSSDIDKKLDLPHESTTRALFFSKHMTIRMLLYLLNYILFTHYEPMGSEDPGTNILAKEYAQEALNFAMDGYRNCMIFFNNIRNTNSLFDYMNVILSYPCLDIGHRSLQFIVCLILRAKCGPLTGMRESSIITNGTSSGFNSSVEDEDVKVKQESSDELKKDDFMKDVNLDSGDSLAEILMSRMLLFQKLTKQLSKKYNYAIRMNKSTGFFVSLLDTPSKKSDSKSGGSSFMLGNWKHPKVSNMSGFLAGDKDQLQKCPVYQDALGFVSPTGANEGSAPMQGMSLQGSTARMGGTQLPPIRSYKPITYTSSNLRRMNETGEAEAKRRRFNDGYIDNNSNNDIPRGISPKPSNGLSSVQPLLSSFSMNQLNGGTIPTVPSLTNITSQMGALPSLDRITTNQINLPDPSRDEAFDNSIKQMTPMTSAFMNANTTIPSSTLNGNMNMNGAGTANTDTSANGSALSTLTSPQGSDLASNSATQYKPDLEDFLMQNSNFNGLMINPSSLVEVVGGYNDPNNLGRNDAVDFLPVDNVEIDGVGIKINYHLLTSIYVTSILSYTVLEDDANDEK
In short: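 Masliner-normalised scans of fluorescent anti-GST signal were the basis for scoring. That signal came from GST-tagged yeast transcription factors applied at about 100-200 nM to double-stranded universal all-10-mer Agilent arrays on fresh or once-stripped slides. Each ungapped eight-base word, pooled with its reverse complement, received an E-score from the Universal PBM Analysis Suite.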

| Sequence | PBM E-score |
| --- | --- |
| ATGATGAG | -0.233 |
| CAGCACGC | -0.111 |
| CGCACCCA | -0.127 |
| GTCTACTA | -0.154 |
| ACAACGGC | 0.183 |
| CGCTTCAG | -0.0473 |
| GCACCTCA | -0.088 |
| CATCTTAA | -0.119 |
| CGAGGTAG | 0.0618 |
| AACCTGAG | -0.167 |
| CTCAACGC | -0.217 |
| AAATGACG | 0.0199 |
| GCAGGCCA | -0.118 |
| GAATATGA | -0.129 |
| AGGGTCTA | 0.00504 |
| CCCAAACG | -0.0556 |
| GAAAGAGC | -0.138 |
| ATGCACGG | 0.103 |
| CCCACGGC | 0.0303 |
| ATCCCACA | -0.172 |
| ACGGGGTC | 0.0962 |
| ATTCAGCC | -0.0588 |
| ACGGCGCA | 0.112 |
| CGAAAGAC | 0.142 |
| GGTGTAAC | 0.147 |

| Sequence | PBM E-score |
| --- | --- |
| CATTAGTC | 0.0471 |
| ACCGTTGG | -0.0793 |
| ACATGAGG | -0.274 |
| CTTTTACA | -0.0446 |
| ATCAGAAG | -0.184 |
| AGGCAGCG | -0.11 |
| CACCTCAC | -0.0522 |
| CTTGTATC | -0.0114 |
| GCCGGACC | 0.341 |
| GATGTCCA | -0.03 |
| TGAGTGAA | -0.193 |
| GTAGGGCA | -0.172 |
| ATCCCTTG | -0.16 |
| CAAGGAAG | -0.132 |
| GAGATACC | 0.227 |
| AAATCGTG | 0.00265 |
| TACCGCGA | 0.173 |
| GTGAAAGA | -0.014 |
| AGTAGTTG | -0.0614 |
| CTGACCTC | -0.174 |
| AACCTCCC | 0.0424 |
| CGGTGATA | 0.428 |
| GGAATTTA | 0.297 |
| AAGCAACT | -0.0805 |
| CTATCGCC | 0.102 |

| Sequence | PBM E-score |
| --- | --- |
| CAGATTCC | 0.161 |
| CCGTTAGC | 0.218 |
| CGCTAATC | 0.0862 |
| AAAAAACG | 0.0042 |
| ATACAATA | 0.195 |
| ACCCTCGC | -0.00236 |
| CATGAGAG | -0.154 |
| AGGCGTTG | -0.0743 |
| ACACCTCC | 0.0128 |
| GTGGATCA | -0.21 |
| ACCAATCT | -0.0601 |
| CTGATGAC | -0.156 |
| GCGGATGA | 0.256 |
| ACCATTCC | 0.0406 |
| ACGGACAG | 0.113 |
| AGCAAGGG | -0.102 |
| GAGCCGGA | 0.379 |
| AAAGAACG | -0.105 |
| CTTTGTAA | -0.186 |
| AACGTACC | -0.0889 |
| AGTAACCG | 0.106 |
| CGTTGGAA | -0.00474 |
| AACATTGC | -0.0896 |
| CCTCCCCA | -0.168 |
| AACTCAGC | 0.00165 |

| Sequence | PBM E-score |
| --- | --- |
| CGTAGGGA | -0.133 |
| CAATGAAA | -0.287 |
| ATAGTGTA | -0.141 |
| GGGATACC | 0.196 |
| CACAAGAA | -0.0278 |
| AAGCAAAC | -0.023 |
| AGGATGGG | -0.145 |
| AAGCTTCT | -0.124 |
| AGTTTTCA | -0.0278 |
| ACGCGAGT | 0.128 |
| CATAGCAG | -0.303 |
| GGTCGACA | -0.0217 |
| AGATATAG | -0.0888 |
| AGGTCTAG | -0.229 |
| GATACCAC | 0.205 |
| ACGAGCTC | 0.00515 |
| TGTCTGAA | -0.173 |
| ACAGAGGG | -0.24 |
| ATTGTATC | 0.0599 |
| ATCAACCG | 0.176 |
| CCCCAGGC | -0.192 |
| CTCACGGA | 0.221 |
| ATTGGGAC | -0.132 |
| ACACTGCC | 0.0209 |
| GTGAATAA | -0.145 |

| Sequence | PBM E-score |
| --- | --- |
| ATGCTTTG | -0.204 |
| AGGACCCT | -0.288 |
| CGTAAAAA | -0.0257 |
| AGACACAA | -0.0156 |
| ATAATTAT | 0.109 |
| CCTCTACC | 0.073 |
| ACCTTTCT | -0.251 |
| CTTGTGCC | -0.125 |
| ATAAATGC | 0.0248 |
| GGGATTAC | 0.248 |
| GTCATCCA | -0.0614 |
| ATTCGGCC | 0.375 |
| TATGCATA | -0.267 |
| CTCAGAGA | -0.174 |
| TGGTTAAA | -0.0634 |
| ACTTTCCA | -0.00707 |
| CATTTAGA | -0.0238 |
| CGCACATC | 0.0694 |
| CTCTCGTC | -0.068 |
| AATGGCCG | 0.217 |
| ATATCGTG | -0.0299 |
| AAGGAACA | -0.0987 |
| GAAGTGCC | 0.0732 |
| GCATTCTA | -0.172 |
| AAAGCACG | -0.0743 |

| Sequence | PBM E-score |
| --- | --- |
| CGAAAGGA | 0.171 |
| CACCCCCA | -0.266 |
| AAGACCTG | -0.0727 |
| AAAGCGAG | 0.116 |
| CCAAACAC | -0.151 |
| GCGTGGGA | -0.14 |
| AACCGCTG | -0.0744 |
| AATACCAG | 0.0158 |
| ACGTGTCC | 0.188 |
| CTAGCTGA | -0.256 |
| AGTTATCC | 0.106 |
| TGCGGGAA | 0.209 |
| GCTCAACC | -0.111 |
| GAAATTGA | 0.13 |
| AGTAAGAA | -0.101 |
| AAGAGAAA | -0.117 |
| AATCAGGC | -0.0136 |
| GTTAAAGA | 0.0418 |
| ACCCTCCT | -0.0844 |
| GATTGAGC | 0.0493 |
| CAGTAGCA | -0.0737 |
| ACGTACGA | -0.019 |
| CAGCCGTA | 0.00855 |
| ATGGCGAG | -0.199 |
| CACGATGA | -0.204 |

| Sequence | PBM E-score |
| --- | --- |
| AGCCCGTG | 0.0403 |
| AGTATGGA | -0.0629 |
| GGGCCGGA | 0.355 |
| GGTGCAAA | -0.137 |
| ATACCAGA | -0.188 |
| ACCAGACG | -0.265 |
| AAGGGAAA | -0.191 |
| CCGAAGCG | 0.367 |
| ACGAGGCC | 0.0939 |
| AACGGGGG | 0.158 |
| ATGGTGTG | -0.303 |
| ACTTCCAC | 0.0562 |
| GCTTTCAC | -0.183 |
| CATACTAG | -0.00017 |
| ATGTTGCG | 0.058 |
| AGATCAAC | -0.284 |
| AGGTACCA | -0.158 |
| ATCTAAGC | -0.0574 |
| ATCCAACA | -0.0248 |
| CCTGTATC | 0.022 |
| GCCGAGTA | 0.276 |
| ACTGTGCG | -0.13 |
